PubChem BioAssay AID445 (National Center for Advancing Translational Sciences (NCATS), 2006)
The whole screen tested about 110,000 compounds, of which about 40 (0.04%) were called active. Inconclusive results, whose numbers are uncertain, are shown with a selection of clear calls. Calls follow the shape of the dose curve; as a rule, active = well fitted curve in the direction sought with a large enough effect in the signal ratio (not every such curve was filed as active); inconclusive = small, poorly fitted or top-dose-only effect, or a change in a side signal; inactive = flat fitted curve, though single readings scatter; the % refers to the signal ratio. Potencies of inconclusive entries are doubtful fits and often do not repeat.

assay: IkB Signaling; details: ABC-DLBCL IkBa-CBG/CBR dual luciferase ratio (green luciferase fused to IkBa over red control in OCI-Ly3 lymphoma cells), 4 h; IkBa stabilization activation: at 57.1 µM (top of the series), scaled: untreated 0%, proteasome inhibitor 100% unless noted;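 as to IkBa stabilization activation: 0% = basal untreated cells and 100% = reference inhibitor full response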
Summary of the method: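 In this assay, an IκBα–CBG68 fusion accumulates when IKK-driven degradation is blocked; native CBR normalizes for cell number. OCI-Ly3 cells were treated 4 h with compound and doxycycline, then green and red light read after Chroma-Glo addition.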
Potency is read from the fitted curve at half-maximal effect.

| Structure (SMILES) | IkBa stabilization activation | Potency |
| --- | --- | --- |
| CCCC(=O)NCCc1c2n(c3ccc(OC)cc13)CCCc1ccccc1-2 | inactive: -1.65% | – |
| O=C1CC2(CCCC2)CC(=O)N1CCCCN1CCN(c2ncccn2)CC1 | – | inconclusive: 15.8 µM [rising, single point] |
| O=c1c(-c2nc3ccccc3o2)c2oc3ccccc3n2c2ccccc12 | inactive: 0.659% | – |
| Cc1cc(C)c(NC(=O)Cc2ccc(-n3c(C)nc4cccnc43)cc2)c(C)c1 | inactive: 0.147% | – |
| CCOc1cc(C2C(C(=O)OC)=C(C)NC3=C2C(=O)c2ccccc23)cc(Br)c1OCC (stereo unspecified) | – | inconclusive: 31.6 µM [signal inhibitor, single point] |
| Cc1ccc(OC(=O)CSc2nnc(-c3cccs3)o2)c(C)c1 | inconclusive: 1.11% [signal inhibitor] | – |
| CC1=C(C(=O)OC2CCCCCC2)C(c2ccc(Cl)cc2)CC(=O)N1 (stereo unspecified) | inconclusive: 5.56% [signal inhibitor] | – |
| CC(=O)OCC(=O)[C@@]1(O)CC[C@@H]2[C@H]3CCC4=CC(=O)CC[C@]4(C)[C@]3(F)[C@@H](O)C[C@@]21C | inconclusive: 14.4% [signal activator] [at 25.6 µM, scaled: untreated 0%, proteasome inhibitor 100%] | – |
| Cc1cc(C)n(-c2ccc(C(=O)N3CCc4ccccc43)cc2)n1 | inconclusive: 5% [signal inhibitor] | – |
| CCc1cc2cccc(C)c2nc1SCC(=O)N1CCN(C(=O)c2ccco2)CC1 | inconclusive: 1.17% [signal inhibitor] | – |
| Cc1cccc(C(=O)Nc2ccc(S(=O)(=O)N3CCCCC3c3cccnc3)cc2)c1 (stereo unspecified) | inconclusive: 3.94% [signal inhibitor] | – |
| Cc1ccc(-n2ncc3c(N4CCN(Cc5ccccc5)CC4)ncnc32)cc1 | inconclusive: 3.08% [signal inhibitor] | – |
| Cc1ccc(CNC(=O)C(C)n2c(=O)cc(-c3ccccc3)c3c(C)nn(C)c32)cc1 (stereo unspecified) | inconclusive: 4.24% [signal inhibitor] | – |
| Cc1ccc2nc(-c3c[nH]c4ccccc34)c(Nc3ccc(F)cc3)n2c1 | – | inconclusive: 0.02 µM [signal inhibitor, full curve] |
| O=C(CN(C1CC1)S(=O)(=O)c1ccc(S(=O)(=O)NC2CCCCC2)cc1)Nc1ccccc1 | inconclusive: 3.42% [signal inhibitor] | – |
| COc1ccccc1N1CCN(C(=O)c2ccc3c(c2)CCN3S(=O)(=O)c2ccccc2)CC1 | inconclusive: 3.98% [signal inhibitor] | – |
| COc1ccc2c(Sc3ccccc3)c(C(=O)NCc3cc(Br)ccc3OC)[nH]c2c1 | inconclusive: -1.56% [signal inhibitor] | – |
| Cc1noc(C)c1COC(=O)c1ccc(-c2nc3ccccc3s2)s1 | inactive: -0.929% | – |
| O=C(CC(c1cccs1)N1Cc2ccccc2C1=O)Nc1cccc(F)c1 (stereo unspecified) | inactive: 0.53% | – |
| CCCn1ccc2c(OCC(=O)Nc3ccc(OC)c(OC)c3)cccc2c1=O | inconclusive: 3.45% [signal inhibitor] | – |
| COc1ccccc1CNC(=O)c1ccc(CSc2nc3ccncc3n2Cc2cccc(F)c2)cc1 | inconclusive: 2.32% [signal inhibitor] | – |
| Cc1ccc2c(=O)cc(C(=O)Nc3nc4ccc(Cl)cc4s3)oc2c1 | inconclusive: 10.5% [signal inhibitor] | – |

| Structure (SMILES) | IkBa stabilization activation | Potency |
| --- | --- | --- |
| Cc1cccc(-c2cc3nc4c(c(N5CCOCC5)n3n2)CCCC4)c1 | inconclusive: 2.79% [signal inhibitor] | – |
| COc1ccc(CCNc2nc3c(c(=O)n(C)c(=O)n3C)n2Cc2ccccc2Cl)cc1OC | inconclusive: 2.98% [signal inhibitor] | – |
| O=C(CSc1nnc(-c2ccc(Cl)cc2)n1Cc1ccco1)Nc1ccc2c(c1)OCCO2 | inconclusive: 2.97% [signal inhibitor] | – |
| Cc1csc2nc(-c3cccc(NC(=O)c4c(F)cccc4F)c3)cn12 | inconclusive: -0.419% [signal inhibitor] | – |
| O=c1oc2c(CN3CCOCC3)c(O)ccc2c2c1CCCC2 | inactive: -1.31% | – |
| CCOc1ccc(NC(=O)c2ccc(N)cc2)cc1 | – | inconclusive: 20 µM [signal inhibitor, partial curve] |
| O=C(Nc1ccc(S(=O)(=O)N(Cc2ccccc2)c2ccccc2)cc1)c1ccc(F)cc1 | inconclusive: 0.116% [signal inhibitor] | – |
| O=C(CCc1ccccc1)N1CCc2c([nH]c3ccccc23)C1c1ccc(F)cc1 (stereo unspecified) | inconclusive: 2.14% [signal inhibitor] | – |
| CN1C(=O)c2ccccc2Sc2ccc(NC(=O)c3ccc(C#N)cc3)cc21 | inconclusive: 2.32% [signal inhibitor] | – |
| COc1ccc(-c2cc(C(=O)Nc3c(C)n(C)n(-c4ccccc4)c3=O)no2)cc1 | inconclusive: 8.81% [signal inhibitor] | – |
| COc1cc(CNc2ccc3[nH]c(=O)[nH]c3c2)cc(Cl)c1OCc1ccc(F)cc1 | inconclusive: -0.694% [signal inhibitor] | – |
| Cc1nn(C(C)(C)C)c(OC(=O)c2c(F)cccc2F)c1Sc1ccccc1 | inconclusive: 4.22% [signal inhibitor] | – |
| Cc1cc2c(cc1S(=O)(=O)Nc1cccc(Cl)c1C)OCCN2C | inactive: 0.164% | – |
| COc1cccc(NC(=O)C2CCN(c3nnc(-n4c(C)ccc4C)s3)CC2)c1 | inconclusive: 4.18% [signal inhibitor] | – |
| O=C(Nc1cccc(-c2cnc3ccccc3n2)c1)c1ccco1 | inactive: -3.68% | – |
| COc1cccc(CN2CCCN(S(=O)(=O)c3ccc(Br)cc3)CC2)c1 | inconclusive: 3.46% [signal inhibitor] | – |
| Cc1ccc(CNC(=O)C2CCCN(Cc3nc(-c4cccc(C)c4)oc3C)C2)cc1 (stereo unspecified) | inconclusive: -0.611% [signal inhibitor] | – |
| Cc1ccc(S(=O)(=O)N2CCCCC2C(=O)N2CCN(Cc3ccccc3)CC2)cc1 (stereo unspecified) | inactive: -0.815% | – |
| Cc1ccc(-c2nc3c(c(SCC(=O)Nc4cccc(C(=O)O)c4)n2)Cc2cccc(C)c2O3)cc1 | – | inconclusive: 12.6 µM [signal inhibitor] |
| CN1CCN(c2ccnc(-c3ccc(N(C)C)cc3)n2)CC1 | inactive: -1.1% [at 11.4 µM, scaled: untreated 0%, proteasome inhibitor 100%] | – |
| CCOC(=O)c1[nH]c2ccc(OC)cc2c1NC(=O)C(C)N1CCC2(CC1)OCCO2 (stereo unspecified) | inactive: -1.67% | – |
| CN(C)c1ncc2nc(-c3ccc(Cl)cc3)c(=O)n(Cc3cccs3)c2n1 | inactive: -1.39% [at 11.4 µM, scaled: untreated 0%, proteasome inhibitor 100%] | – |

| Structure (SMILES) | IkBa stabilization activation | Potency |
| --- | --- | --- |
| Cc1c(C)c2c(c(C)c1O)CC[C@@](C)(C(=O)O)O2 | inactive: 0.95% [at 25.6 µM, scaled: untreated 0%, proteasome inhibitor 100%] | – |
| O=C(CSc1nc2sc3c(c2c(=O)[nH]1)CCCC3)Nc1ccccc1F | inconclusive: 3.55% [signal inhibitor] | – |
| CC(C)Oc1ccc(CNS(=O)(=O)c2ccc(-c3cc(C(F)(F)F)on3)s2)cc1 | inactive: -2.56% | – |
| Cc1ccc(NC(=O)CCn2cnc3onc(-c4ccc(F)cc4)c3c2=O)c(Br)c1 | inconclusive: -2.18% [signal inhibitor] | – |
| Cc1ccc2nc(CN3CCN(S(=O)(=O)c4ccc(F)cc4)CC3)oc2c1 | inactive: 1.69% | – |
| CC(=O)N1C=CN(C(C)=O)C(c2cn(C)c3ccccc23)C1c1cn(C)c2ccccc12 (stereo unspecified) | inconclusive: 2.96% [signal inhibitor] | – |
| CCNc1nc(NCc2ccccc2)nc(Oc2ccc(=O)[nH]n2)n1 | inactive: 0.749% | – |
| Nc1nc(-c2ccc3c(c2)CCCC3)cs1 | inactive: -0.565% | – |
| Cc1ccccc1C(=O)Nc1cccc(C(=O)OCc2cc(=O)n3nc(C4CC4)sc3n2)c1 | inconclusive: 6.08% [signal inhibitor] | – |
| Cc1ccc(C)c(CN2C(=O)c3ccccc3Sc3ccc(C(=O)NCc4ccc5c(c4)OCO5)cc32)c1 | inconclusive: 1.14% [signal inhibitor] | – |
| COc1ccc(NC(=O)c2c(NC(=O)c3cccc(C)c3)sc3c2CCCC3)cc1 | – | inconclusive: 15.8 µM [signal inhibitor, partial curve] |
| CC(=O)c1cccc(NC(=O)c2ccc3nc(C(C)C)oc3c2)c1 | inconclusive: 0.234% [signal inhibitor] | – |
| O=C1c2oc3ccccc3c(=O)c2C(c2cccc(Br)c2)N1c1ccccn1 (stereo unspecified) | inconclusive: 2.32% [signal inhibitor] | – |
| CCCCN(C)C(=O)Cn1cnc2sc(C)c(S(=O)(=O)N3CCN(c4ccccc4OC)CC3)c2c1=O | inconclusive: 3.14% [signal inhibitor] | – |
| O=c1cc(-c2cccc(O)c2)oc2cc(O)ccc12 | inactive: -1.1% [at 11.4 µM, scaled: untreated 0%, proteasome inhibitor 100%] | – |
| Cc1ccc(N=Nc2c(O)c(S(=O)(=O)O)cc3cc(S(=O)(=O)O)ccc23)c(C)c1 | inactive: -4.46% [at 11.4 µM, scaled: untreated 0%, proteasome inhibitor 100%] | – |
| CCOC(=O)c1[nH]c2ccccc2c1NC(=O)c1cc(OCC)c(OCC)c(OCC)c1 | inconclusive: 1.7% [signal inhibitor] | – |
| NC(=O)c1sc(=S)n(-c2ccc(Br)cc2)c1N | inconclusive: 1.14% [signal inhibitor] | – |
| O=C(O)CCN1/C(=C/C=Nc2ccccc2)Oc2ccccc21 | inactive: 0.532% | – |
| CCOC(=O)N1CCC(Nc2ccc3nnc(-c4ccccc4)n3n2)CC1 | inconclusive: 5.86% [signal inhibitor] | – |
| COc1ccc(-c2noc(CSc3nnc(-c4ccncc4)n3-c3ccc(C)c(C)c3)n2)cc1 | inconclusive: -0.212% [signal inhibitor] | – |
| Clc1ccc(Nc2nc(-c3ccccc3)c3cc(Cl)ccc3n2)cc1 | inconclusive: 18% [signal inhibitor] | – |
